Data as given in PubChem BioAssay AID485313 (National Center for Advancing Translational Sciences (NCATS), 2010).
Among all 320,000 compounds or so, about 7,600 (2.4%) were called active. Inconclusive means that the source gave no clear call. Such entries were picked first, then a sample of the others. Calls follow the shape of the dose curve; as a rule, active = well fitted activation curve with a large enough effect; inconclusive = small, poorly fitted or top-dose-only effect; inactive = no such curve, though single readings can be large or run the other way. Where the call is inconclusive, the potency comes from a doubtful curve fit.

Experiment: qHTS Assay for NPC1 Promoter Activators; also: nearly all actives have a fitted effect of over 60% in size;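 as to activation: reporter is driven by a mutant NPC1 promoter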
Settings: Huh7 NPC1 promoter luciferase reporter, 24 h; series mostly up to 9.22 µM
Method in brief: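 Stably transfected Huh7 (NPC1 promoter→luciferase), 1500 cells/well in Opti-MEM + 10% FBS, 2 h settle, then compound 24 h at 37 °C. Luminescence after 10 min with Amplite reagent.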
Potency is read from the fitted curve at half-maximal effect; tags tell the direction and shape of the fitted curve.

Potency, inactive:
COc1ccc(CN2CCNC(=O)C2CC(=O)N2CCCN(C(C)=O)CC2)c(OC)c1 (stereo not drawn)
COc1ccc(CCN2C(=O)CC(Cc3ccc(C)cc3)C2=O)cc1OC (stereo not drawn)
Oc1cccc(N2Cc3ccccc3C2)c1
COCCN(CCOC)c1nc(-c2ccc(C)cc2)nc2ccccc12
CC1CN(Cc2ccccc2)c2nc3c(c(=O)[nH]c(=O)n3C)n2C1 (stereo not drawn)
COc1ccccc1C(=O)NCCNc1nc2cc(C)cc(C)c2cc1C#N
O=C(N/N=C/c1ccccc1O)c1cccc2ccccc12
COc1ccc2c3c(cccc13)N(C)N=C2C
COc1ccc(/C=C/C(=O)c2oc3ccc(F)cc3c2C)cc1
COc1cc2c(cc1OC)CN(C(=O)COc1ccc(C)c(C)c1)CC2
COc1cc(Nc2cc(C)nc3ncnn23)cc(OC)c1
Cc1ccc(S(=O)(=O)N(C)C)cc1NC(=O)COC(=O)/C=C/c1ccc2c(c1)OCO2
CC1(C)CN(C(Cc2ccccc2)C(N)=O)C1=O (stereo not drawn)
Cc1ccc(NS(=O)(=O)c2c(C)noc2C)cc1
CCCC[C@@H]1CNCCN1CC1(c2ccccc2)CC1
COc1cc2c(cc1NC(=O)/C=C/c1cc(OC)c(OC)c(OC)c1)oc1ccccc12
CC(C)Cc1ccc(C(C)NC(=O)Cc2ccc(S(=O)(=O)N3CCOCC3)s2)cc1 (stereo not drawn)
COc1ccc([N+](=O)[O-])cc1NS(=O)(=O)c1ccc(Cl)c(C(=O)Nc2sc3c(c2C#N)CCCCC3)c1

Potency, inconclusive:
CC(=O)Nc1cc(NC(C)=O)c(N=Nc2ccccc2)cc1C 2.51 µM [activator, partial curve]
COc1cccc(/C=N/n2c(N)nc3ccccc32)c1OC 3.16 µM [activator, single point]
Cc1ccc(S(=O)(=O)N2CCN(CC(=O)N3CCOCC3)CC2)cc1 1.26 µM [activator, single point]
Cc1occc1C(=O)NCCc1cccc(Cl)c1 2.51 µM [activator, partial curve]
O=C(NNc1ncnc2ccccc12)c1cccc(Cl)c1 0.501 µM [activator, full curve, poor fit]
CCc1cccc(NC(=O)Nc2cccs2)c1 3.16 µM [activator, partial curve]
C/C(=N\NC(=O)c1ccc(Cl)cc1)c1ccccn1 5.62 µM [activator, single point]
COc1ccc(CCNC(=O)Nc2ccccc2[N+](=O)[O-])cc1 3.16 µM [activator, single point]
C=CCn1cccc(C(=O)Nc2ccc(OC)c(Cl)c2)c1=O 0.891 µM [activator, full curve]
NC(=O)c1cc2ccc(O)cc2oc1=Nc1ccccc1 3.55 µM [activator, partial curve]
Oc1ccc(/C=N/Nc2cccc(Cl)n2)c(O)c1 3.98 µM [activator, single point]
COc1cccc(/C=C/C(=O)NNC(=O)c2ccco2)c1OC 2 µM [activator, partial curve]
O=C(N/N=C/c1ccco1)c1ccccn1 2.24 µM [activator, partial curve]
Cc1cccc(N=Nc2c(C)[nH]n(-c3ccccc3)c2=O)c1 3.55 µM [activator, partial curve]
Nn1c(SCC(=O)N2CCOCC2)nnc1-c1ccco1 1.26 µM [activator, single point]
CCOC(=O)c1c(C)[nH]c(N=Nc2ccccc2Cl)c1C 2.51 µM [activator, partial curve]
O=C(Cn1cc(C(F)(F)F)cc(Cl)c1=O)NCc1ccc(F)cc1 3.55 µM [activator, single point]
Cc1ccc(C(=O)Nc2cccnc2)cc1Cl 3.98 µM [activator, partial curve]
O=C(Nc1nc(COc2ccccc2)cs1)C1CCC1 3.55 µM [activator, single point]
CCCN1CCN(CCCNC(=O)c2ccc3nc(N4CCCCC4)sc3c2)CC1 0.355 µM [activator, full curve]
Cc1cccc(Cc2cnc(NC(=O)c3ccc(C)o3)s2)c1 3.55 µM [activator, single point]
Cc1nn(C)c(C)c1C(C)NC(=O)c1cc(COc2cncc(Cl)c2)on1 (stereo not drawn) 1.12 µM [activator, single point]
O=C1c2ccccc2-c2n[nH]c3cccc1c23 10.3 µM [activator, partial curve]
CC(=O)Nc1ccc(SCCCC(=O)c2ccccc2)cc1 3.55 µM [activator, single point]
CN(Cc1ccon1)C(=O)CCc1nnc(CCCCc2ccccc2)o1 3.55 µM [activator, single point]
CN(C)/N=C/c1ccc(N2CCOCC2)cc1 3.16 µM [activator, single point]
Cc1cccc2sc(NC(=O)C3CCCO3)nc12 (stereo not drawn) 3.16 µM [activator, single point]
O=C(COc1ccc(Br)cc1CO)Nc1ccccc1 5.62 µM [activator, single point]
N#C/C(=C1/CCCCCN1)c1nc2ccccc2[nH]1 3.55 µM [activator, partial curve]
C/C(=N\Nc1ccccn1)c1ccc2c(c1)OCO2 3.16 µM [activator, single point]
CCOC(=O)c1cc(-c2ccc(OC)cc2)n[nH]1 3.55 µM [activator, single point]
COc1ccc(OC)c(CNC(=O)CCCn2ccc3cc(S(=O)(=O)N4CCCC4)ccc32)c1 1.26 µM [activator, single point]
Cc1ccc(COc2ccc(Br)cc2/C=N/O)cc1 4.47 µM [activator, single point]
CN1CCC(=O)N(CCSc2ccccc2)CC1 3.16 µM [activator, partial curve]
CC(=O)Nc1ccc(/C=N/Nc2nc3ccccc3[nH]2)cc1 3.55 µM [activator, partial curve]
COc1cccc(NC(=O)c2ccc(NC(=O)C(C)(C)C)cc2)c1 3.55 µM [activator, partial curve]
COc1ccc(S(=O)(=O)NC(C)c2ccccc2)cc1C(=O)N1CCCCC1 (stereo not drawn) 3.55 µM [activator, single point]
COc1ccc(OCCCSc2ncccn2)cc1 3.16 µM [activator, partial curve]
Cc1cccc(OCc2nc3ccccc3c(=O)n2N)c1 3.98 µM [activator, single point]
CCCCCOc1ccc(NS(C)(=O)=O)cc1 3.16 µM [activator, single point]
CC1Oc2ccccc2C=C1/C=N/NC(=O)c1ccccc1 (stereo not drawn) 2.82 µM [activator, partial curve]
Cc1ccc2nc(SCc3nc4ccccc4c(=O)[nH]3)[nH]c2c1 3.98 µM [activator, partial curve]
O=C(O)c1cccc(NC(=S)N/N=C/c2cccnc2)c1 3.16 µM [activator, single point]
Oc1ccc(-c2csc(Nc3ccccn3)n2)cc1O 5.62 µM [activator, single point]
COc1cc(OC)cc(C(=O)Nc2ccc(-n3cnnn3)c(C)c2)c1 5.62 µM [activator, single point]
O=C(CSc1nnc(NC(=O)c2ccccc2)s1)NC1CCCC1 5.01 µM [activator, partial curve]
O=C(CCCc1ccccc1)Nc1ccc(Br)cc1F 2.82 µM [activator, single point]

Potency, active:
O=C(Nc1ccc(Br)cc1)Nc1ccccc1F 1.58 µM
O=C(Nc1ccc2c(c1)OCCO2)c1cccc(C(=O)Nc2ccc3c(c2)OCCO3)c1 3.98 µM
CCOc1ccc2oc(C(=O)Nc3cc(C)ccn3)c(C)c2c1 0.631 µM
Clc1ccc(-c2nnc(NC3=NCCCCC3)o2)cc1 0.355 µM
COc1ccc(/C=C/C(=O)NC(=S)N2CCOCC2)cc1 3.55 µM
Fc1cc(Br)ccc1COc1ccc(-c2nnco2)cc1 2.51 µM
COc1ccc2cc3cc(C(=O)N4CCCC(C)C4)oc3nc2c1 (stereo not drawn) 2.51 µM
Cc1ccc(NC(=O)c2cc3ccccc3oc2=N)cc1 0.447 µM
CC(C)c1ccc(/C=C/C(=O)NC2=NCCS2)cc1 0.316 µM
CCOC(=O)N1CCN(C(=O)CCCOc2ccccc2)CC1 2.82 µM
O=C(O)c1ccc(N/N=C/c2cccc3cccnc23)cc1 0.316 µM
CCCCN1CCc2c([nH]c3ccc(C)cc23)C1=O 2.82 µM
O=[N+]([O-])c1cc(N=Nc2ccc3ccccc3c2)ccc1O 2.24 µM
